The record followed here is PubChem BioAssay AID360 (National Center for Advancing Translational Sciences (NCATS), 2006).

In all, about 48,000 compounds went through this assay and about 550 (1.1%) were called active. About 4% were inconclusive and are not listed. No stated cut-off is given here; in the data, active means potency below about 15 µM; inconclusive means mostly about 16 µM to 33 µM; inactive means weaker than that. The list shows a part of the results.
Potency means the concentration at half of the fitted maximal effect.

This assay has as its target Lysosomal acid glucosylceramidase (Homo sapiens) (UniProt P04062). The experiment in a line: Glucocerebrosidase.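 Further: the screen sought inhibitors.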 The note with it: purified enzyme, resorufin glucoside fluorescence (screen aimed at inhibitors), 20 min. The procedure, abridged: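 Wild-type enzyme at 0.2 nM final in 50mM citric acid/KH2PO4, 10mM sodium taurocholate, 0.01% tween-20, pH 5.9, with resorufin beta-D-glucopyranoside at 30 uM final. Compounds titrated, 20 min at RT, red fluorescence read; AC50 from titration.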
Chain of UniProt P04062 (P04062 whole entry, looked up): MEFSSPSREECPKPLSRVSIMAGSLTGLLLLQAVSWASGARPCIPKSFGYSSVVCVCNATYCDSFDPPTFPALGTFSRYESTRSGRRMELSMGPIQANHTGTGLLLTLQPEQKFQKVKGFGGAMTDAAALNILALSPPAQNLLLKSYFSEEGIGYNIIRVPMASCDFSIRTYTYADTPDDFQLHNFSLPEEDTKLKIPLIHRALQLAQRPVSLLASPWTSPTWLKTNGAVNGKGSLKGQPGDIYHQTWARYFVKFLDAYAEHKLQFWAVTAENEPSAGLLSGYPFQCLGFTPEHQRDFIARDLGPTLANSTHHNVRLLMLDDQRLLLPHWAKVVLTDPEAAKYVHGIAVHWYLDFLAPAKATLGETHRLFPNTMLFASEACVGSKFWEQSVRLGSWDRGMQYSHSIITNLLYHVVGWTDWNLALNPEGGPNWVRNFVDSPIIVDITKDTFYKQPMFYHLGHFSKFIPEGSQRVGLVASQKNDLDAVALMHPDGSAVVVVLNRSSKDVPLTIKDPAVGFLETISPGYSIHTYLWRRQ
For the compound `Cc1c(Cl)cccc1NC(=O)CCCCCN1C(=O)CCC1=O`, the Potency was inactive: > 76.9 µM. As to `OC(CN1C2=NCCN2c2ccccc21)c1ccccc1` (stereo unspecified), the Potency was inactive: > 76.9 µM. Consider `Cc1ccc2nc3ccc(N4CCCC4)nn3c(=O)c2c1`, for which the Potency is inactive: > 76.9 µM. Regarding `CCOC(=O)C1CCCN(C(=O)C2CCN(S(=O)(=O)c3cccs3)CC2)C1` (stereo unspecified), the Potency was inactive: > 76.9 µM. For `CCOC(=O)C1CCN(C(=O)Cc2c(F)cccc2Cl)CC1`, the Potency is inactive: > 76.9 µM. For the compound `COc1cc2c(cc1OC)CN(C(=O)c1ccc(OC)c(S(=O)(=O)N3CCOCC3)c1)CC2`, the Potency is inactive: > 76.9 µM. For the compound `Cc1ccnc(NS(=O)(=O)c2cccs2)c1`, the Potency was inactive: > 76.9 µM. On to `Cc1ccc(-c2csc(N3CCC(NS(=O)(=O)c4ccc5c(c4)OCCO5)CC3)n2)cc1`, for which the Potency is inactive: > 76.9 µM. With `N#CCCCN1C(=O)C(O)(CC(=O)c2ccc3c(c2)OCCO3)c2ccccc21` (stereo unspecified), the Potency is inactive: > 76.9 µM. Take `CCC(C)Sc1nc2c(c(=O)[nH]c(=O)n2C)n1Cc1ccc(Cl)cc1` (stereo unspecified): the Potency was inactive: > 76.9 µM.

Regarding `C/C(NCCCn1ccnc1)=C(\C#N)C(N)=O`, the Potency is inactive: > 76.9 µM. Turning to `CC1=C(C(=O)Nc2ccccc2)C(c2cccnc2)n2nc(-c3cccnc3)nc2N1` (stereo unspecified), the Potency is inactive: > 76.9 µM. For `CCC(C)N(C(=O)c1csnn1)C(C(=O)NCc1ccc(F)cc1)c1ccco1` (stereo unspecified) the value was inactive: > 76.9 µM. Consider `CC(=O)c1cccc(NC(=O)Nc2cnn(Cc3ccc(F)cc3)c2)c1`, for which the Potency was inactive: > 76.9 µM. Next, `COc1ccc(-c2nnc3ccc(SCC(=O)NCC4CCCO4)nn23)cc1` (stereo unspecified): inactive: > 76.9 µM; `O=C(O)C1CCCN1C(=O)OCc1ccccc1` (stereo unspecified): inactive: > 76.9 µM. `CCn1c(SCC(=O)Nc2cccc(C(C)=O)c2)nnc1C(C)C`: the Potency was inactive: > 76.9 µM. Take `CC(C)Cn1c(=O)c2ccccc2c2ccccc2c1=O`: the Potency was inactive: > 76.9 µM. For the compound `O=C(Nc1ccc2c(c1)OCCO2)c1c(F)cccc1F`, the Potency was inactive: > 76.9 µM. In the case of `CCOC(=O)N1CCC(NC(=O)C2CCC(CNS(=O)(=O)c3ccc(OC)cc3)CC2)CC1` (stereo unspecified), the Potency was inactive: > 76.9 µM.

With `O=C(Nc1nccs1)C1CCN(S(=O)(=O)c2cnc[nH]2)CC1`, the Potency is inactive: > 76.9 µM.

With `COC(=O)C1CCN(C(=O)COc2ccc(Cl)cc2)CC1`, the Potency was inactive: > 76.9 µM. For `CCOCC(=O)Nc1nc2ccc(C)cc2s1`, the Potency was inactive: > 76.9 µM. Next, `COc1cc(NC(=O)CSc2nnc(C)s2)cc(OC)c1`: inactive: > 76.9 µM; `CCn1c(SCC(=O)OC2CCCCC2)nnc1-c1ccncc1`: inactive: > 76.9 µM. Regarding `Cc1c(/C(O)=C2/C(=O)C(=O)N(CCN3CCOCC3)C2c2cccs2)cnn1-c1ccccc1` (stereo unspecified), the Potency was inactive: > 76.9 µM. For `CCOc1cc2[nH]c(=O)n(CCC(=O)NCCc3ccccc3)c(=O)c2cc1OCC`, the Potency was inactive: > 76.9 µM. Next, `N#Cc1c(N)n(C2CCCCC2)c2nc3ccccc3nc12`: inactive: > 76.9 µM. As for `COc1ccc(CNC(=O)c2cc(-n3cnnc3)ccc2Cl)cc1`, the Potency was inactive: > 76.9 µM. With `CCOC(=O)c1[nH]c2ccc(F)cc2c1NC(=O)C1=COCCO1`, the Potency is inactive: > 76.9 µM. Regarding `CCc1nc(SCC(=O)Nc2ccccc2C(=O)OC)n[nH]1`, the Potency was inactive: > 76.9 µM. `CCCCC(=O)Nc1ccc(C(=O)N2CCN(c3ccccc3OC)CC2)cc1`: the Potency is inactive: > 76.9 µM.

For `CCCn1c(SCc2nc(-c3cccs3)no2)nnc1-c1ccncc1`, the Potency is inactive: > 76.9 µM. As for `O=C(NCC(c1cccnc1)N1CCOCC1)c1ccco1` (stereo unspecified), the Potency is inactive: > 76.9 µM. As for `CCOC(=O)c1ccc(NC(=O)c2c(O)c3ccccc3n(C)c2=O)cc1`, the Potency was inactive: > 76.9 µM.

With `CCOC(=O)Cn1c(=O)c2c(nc3n2CCCCN3c2ccc(C)cc2)n(C)c1=O`, the Potency was inactive: > 76.9 µM.

`Clc1nc2sccn2c1/C=N/n1cnc2ccccc21`: the Potency was inactive: > 76.9 µM. Consider `Cc1ccc(S(=O)(=O)N(C)c2ccc(OCC(=O)OCc3c(C)noc3C)cc2)cc1`, for which the Potency was inactive: > 76.9 µM. As to `COC(=O)c1c(NC(=O)CSc2nnnn2C)sc(C)c1C`, the Potency was inactive: > 76.9 µM. Regarding `Cc1ccc(CC2CC(=O)N(c3ccc(Cl)cn3)C2=O)cc1` (stereo unspecified), the Potency is inactive: > 76.9 µM.

Turning to `CCNc1nc(NC(C)C)nc(OCCNS(=O)(=O)c2cc(C)ccc2C)n1`, the Potency was inactive: > 76.9 µM. For the compound `O=C(c1ccccc1)c1ccc(N2CCNCC2)cc1`, the Potency was inactive: > 76.9 µM. In the case of `Cn1cnnc1Sc1nc2c(c(=O)n(C)c(=O)n2C)n1C`, the Potency was inactive: > 76.9 µM. Next, `O=C(CSc1ncnc2c1cnn2-c1ccccc1)Nc1ccc2c(c1)OCO2`: inactive: > 76.9 µM; `O=C(NC1CCCCC1)c1noc2c1CCCCC2`: inactive: > 76.9 µM; `CCCCn1nnnc1NCc1ccc(OC)c(OC)c1`: inactive: > 76.9 µM. In the case of `CC1CCC(NS(=O)(=O)c2ccc3c(c2)n(C)c(=O)c(=O)n3C)CC1` (stereo unspecified), the Potency is inactive: > 76.9 µM. For `N#Cc1cc(C(=O)c2cc(Cl)ccc2O)cn(CC2CCCO2)c1=O` (stereo unspecified), the Potency is inactive: > 76.9 µM. For `COc1cc(-c2nn3c(Cc4ccccc4)nnc3s2)cc(OC)c1OC` the value was inactive: > 76.9 µM; for `COc1ccc(OC)c(S(=O)(=O)NCc2cn3ccsc3n2)c1`, inactive: > 76.9 µM.

Turning to `O=C(c1ccc(Cl)cc1)c1nnc(-c2ccncc2)o1`, the Potency is inactive: > 76.9 µM.

As for `Cc1cccc(C)c1NC(=O)CSc1nnc(-c2ccco2)n1N`, the Potency was inactive: > 76.9 µM. Next, `CCOC(=O)Cn1nnc(-c2ccc(S(C)(=O)=O)cc2)n1`: inactive: > 76.9 µM; `c1ccc2c(c1)OCC(c1nnc3n1-c1ccccc1SC3)O2` (stereo unspecified): inactive: > 76.9 µM. Turning to `CCC(C)(C(=O)NC1CCCC1)N(CC1CCCO1)C(=O)c1ccc2c(c1)OCO2` (stereo unspecified), the Potency was inactive: > 76.9 µM. Take `CC(C)CCNC(=O)c1cccc(Cl)c1`: the Potency is inactive: > 76.9 µM. For the compound `CCCCNS(=O)(=O)c1ccc2nc(SCC(=O)c3ccc(C#N)cc3)[nH]c2c1`, the Potency was inactive: > 76.9 µM. In the case of `CCc1nnc2sc(-c3cc(-c4ccccc4)nc4ccccc34)nn12`, the Potency was inactive: > 76.9 µM. As for `O=C1COc2ccc3ccccc3c2CN1`, the Potency was inactive: > 76.9 µM.

Consider `Cc1cccc(C#N)c1NC1=CC(=O)CC(C)(C)C1`, for which the Potency is inactive: > 76.9 µM. Consider `COc1ccccc1NS(=O)(=O)c1cc(Cl)ccc1OC`, for which the Potency was inactive: > 76.9 µM. Next, `COC(=O)c1[nH]c2cc(OC)ccc2c1NC(=O)CCN1CCCCC1`: inactive: > 76.9 µM; `O=C(CCN1C(=O)COc2ccccc21)NCc1ccco1`: inactive: > 76.9 µM; `O=C(NCCN1CCc2ccccc2C1)C1CCN(S(=O)(=O)N2CCC3(CC2)OCCO3)CC1`: inactive: > 76.9 µM. Consider `N#Cc1cccc(-n2nnnc2-c2ccccn2)c1`, for which the Potency was inactive: > 76.9 µM.

With `CCOc1ccc(NC(=O)NC2CCOC(C)(C)C2)cc1` (stereo unspecified), the Potency was inactive: > 76.9 µM. `O=C(Nc1ccc2oc(-c3ccccc3Cl)nc2c1)c1ncn[nH]1`: the Potency is inactive: > 76.9 µM. On to `CCOc1cccc(NC(=O)C2CC(=O)N(C)C(=Nc3ccccc3)S2)c1` (stereo unspecified), for which the Potency is inactive: > 76.9 µM. Consider `CN(C)c1ccc(-c2ccccc2)nn1`, for which the Potency is inactive: > 76.9 µM. With `CN(C)c1ccc(-c2noc(C3CCN(S(=O)(=O)c4cccc(Cl)c4)CC3)n2)cc1`, the Potency was inactive: > 76.9 µM. As for `COc1ccc(-c2nn(C)c3sc(C(=O)NCc4ccco4)cc23)cc1OC`, the Potency is inactive: > 76.9 µM. With `COc1ccc(Cn2nnnc2C(c2cc(OC)ccc2OC)N2CCC(C(N)=O)CC2)cc1` (stereo unspecified), the Potency was inactive: > 76.9 µM. `CC1CCN(C(c2ccc(N(C)C)cc2)c2nnnn2Cc2ccc(F)cc2)CC1` (stereo unspecified): the Potency result was “inactive”.

Take `C=CCN(CC=C)C(=O)c1ccncc1`: the Potency is inactive: > 76.9 µM. For `O=C(c1ccco1)N1CCN(C(c2ccc(F)cc2)c2nnnn2CC2CCCO2)CC1` (stereo unspecified) the value was inactive: > 76.9 µM; for `COC(=O)C(C#N)c1nc2ccccc2nc1N1CCN(Cc2ccc3c(c2)OCO3)CC1` (stereo unspecified), inactive: > 76.9 µM.

For `COC(=O)c1ccc(CSc2nnc(SCc3ccc(C(=O)OC)o3)s2)o1`, the Potency is inactive: > 76.9 µM. As for `Cc1nn(C)c(C)c1CNC(=O)c1nn2c(c1Cl)NC(c1cccs1)CC2C(F)(F)F` (stereo unspecified), the Potency result is “inactive”. As for `c1ccc(-n2nnc3ccccc32)nc1`, the Potency was inactive: > 76.9 µM.

For the compound `COc1ccc(S(=O)(=O)Nc2ccc(S(=O)(=O)N3CCOCC3)cc2)cc1C`, the Potency is inactive: > 76.9 µM.

`CCN(CC)CCn1nc(C)nc1-c1ccccc1O`: the Potency is inactive: > 76.9 µM.

For the compound `CC(=O)N1CCC2(CC1)C(C#N)=C(N)Oc1c2sc2nc(C)cc(C)c12`, the Potency is inactive: > 76.9 µM. For `COc1ccc(CC(=O)Nc2nccs2)cc1OC` the value was inactive: > 76.9 µM; for `CCCS(=O)(=O)N1CCC(C(=O)NC2CCCC(C)C2C)CC1` (stereo unspecified), inactive: > 76.9 µM.

For the compound `Cc1cccc2cc3c(N)c(C#N)sc3nc12`, the Potency is inactive: > 76.9 µM. Regarding `Cc1cc(C)c2nc(N3CCCN(C(=O)c4ccco4)CC3)c(C#N)cc2c1`, the Potency was inactive: > 76.9 µM.

On to `CC1CCN(S(=O)(=O)c2ccc(-c3nnc(SCc4cccnc4)o3)cc2)CC1`, for which the Potency was inactive: > 76.9 µM. Turning to `CCn1c(=O)cc(OCC(=O)N2CCCCCC2)c2ccccc21`, the Potency is inactive: > 76.9 µM. Take `O=C(CSc1nc(N2CCCCC2)nc(N2CCCCC2)n1)N1CCN(c2ccccc2)CC1`: the Potency was inactive: > 76.9 µM. `O=S(c1ccsc1)c1ccsc1`: the Potency is inactive: > 76.9 µM. For `COC(=O)c1[nH]c(C)c(/C(O)=C2\C(=O)C(=O)N(CCN(C)C)C2c2ccco2)c1C` (stereo unspecified) the value was inactive: > 76.9 µM.
